Experimental data reported in the supplement of paper PMC11417369.
Some of the results follow.

What follows are sequences tested on PfHDP1 homeodomain (GST-tagged) (assay: gcPBM binding intensity (ln(normalized median fluorescence intensity)); higher = stronger DNA binding).
In short: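 For binding intensity, the highest Masliner-normalised natural-log median intensity across replicate spots of either probe orientation was taken. Protein bound to the array was stained with Alexa488 anti-GST antibody and scanned at 488 nm. The protein, GST-tagged P. falciparum DNA-binding domains from E. coli at about 25 μg on average, had been applied for 1 h to an Agilent 4 × 180k array of primer-extended double-stranded 36-bp intergenic genomic probes and negative controls.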

Sequence | gcPBM binding intensity (ln)
TTTTTTCATTTTTTATTTTTTTATTTTTTACATATT [GTGCAC_negctrl_site137] | 6.47
TTTTTTAAAATAATAGGTACACATAAAAAAAAAAAA [XGTACX_site2517] | 6.64
AATGATGTTGTATTGTTTCGATATAACATCTAATTT [GTGCAC_negctrl_site309] | 5.97
TATATATATAGACACACACACATATAAATAAATAAA [CACACA_site444] | 7.26
TTATTTATTTTCATATGTACTTATTTATAGAGGTTG [XGTACX_site5599] | 6.79
CATACATACATACATACACACATATATATATATATG [CACACA_site1995] | 7.63
TTTTTCCCCCTTTTTTTGATTTTTATCTTAATTCTA [TGCATGCA_negctrl_site287] | 5.85
ATATAATAACAAAAGGTGCGCATTAAGACAAAAAAA | 8.23
TATTATATTGTTCATTTACACTTTCATTTTAAAAAA [CACACA_negctrl_site260] | 6.62
CGCACTAAAAAACACACACACACACCCATATATATA [CACACA_site4152] | 7.19
TGTGTATTATAAACATGTACATAAAAATACGATATT [XGTACX_site3643] | 6.84
AAAAAAAAATAATATACACACTCCAATATAAAAAAT [CACACA_site3958] | 6.8
ATTTTTTTTTTTTTTTTTTTTTTTTTTTAATCTGGA [CACACA_negctrl_site1347] | 5.78
ATATTTAACAGGTTAAAAATATAAACAAATAAATAA [CACACA_negctrl_site907] | 6.36
GAGAGGATAGTTCACAGTACTCAGTAACTCTACGGA [XGTACX_site4875] | 6.18
TGTTATTAAAATATAGTGCATAATTAACCATTATAA [GTGCAC_site9594] | 8.69
CACACGCACGGACACACACACATATAAAATCTATAT [CACACA_site6428] | 7.73
TACTTATATACACATGTATATTATATATATAATATA [XGTACX_negctrl_site335] | 7.12
TAATAATATATTTGTAGTACACAATTTTTTATAACT [XGTACX_site3951] | 6.34
TACTATAACAGACATACACACAAAAAAAAAAAAAAA [CACACA_site538] | 6.29
TTTCATATATATGAAACACACAAAGGAAAAAAAATT [CACACA_site4144] | 6.92
ATATAATAAAATTAATGTACATATATGTATTATATA [XGTACX_site3283] | 6.52

Sequence | gcPBM binding intensity (ln)
GCTCATATGACAACAACACACAAAAAAATAAAATGA [CACACA_site714] | 6.84
AACATAATCTCATATACACACAAAAATATTGAAATA [CACACA_site7085] | 6.48
ACAAGTTTATTTGTTGCACACATATAAGTAGAGAAA [CACACA_site8994] | 9.49
AAAAAAAAAAAACACACACACATAGACCTCCAATAG [CACACA_site3562] | 6.92
AATAAATAAATAAATAAAACAAAGGGATTACATACA [TGCATGCA_negctrl_site513] | 6.64
CACAACATATATATATATATATATATATATATGTGT [CACACA_negctrl_site28] | 8.13
ATATTTTGTTATGTAGATGTTGGTAGGAATTTTGGT [CACACA_negctrl_site1104] | 6.63
TACTTTTTAGGAAAGTGTACAAGCATATAAGGAATA [XGTACX_site2834] | 6.83
TTAAAAAAATATTGAAGTACACACATTATAAACTTT [XGTACX_site3548] | 6.33
TATATTTGTTAATTTTGTACGTATGGATATACATAA [XGTACX_site5100] | 6.55
TATAAATATAGAATTACACACAATGTTCTATAAATA [CACACA_site7508] | 6.16
AGGTAGAAAAAAGACACACACATTATATATATATAT [CACACA_site4367] | 9.17
TAATATAAAGAAATATCAATAATTTGGGCAAATGCC [GTGCAC_negctrl_site621] | 6
ATATGCTACATTATATGTACACACATATACATATAT [XGTACX_site1656] | 7.15
AAGGTGGTTATTAAATGTACACAGACATATACAAAA [XGTACX_site3007] | 6.77
TTTTATGCATGTGAAGTGCAAAATAAAAAATAAAAT [GTGCAC_site9612] | 9.13
TGTTAATATATCATTATGTTATAGGTTCAGCTGGGA [CACACA_negctrl_site401] | 6.38
AATATATAAATTGACACACACATATATACATATATA [CACACA_site1213] | 6.71
TTTGTGGTTACATGTGCACACACTTATTTCGTTCTT [CACACA_site1435] | 9.99
GATATGTTTTCCTAGGTTCATGATGATAGGTAGTTT [XGTACX_negctrl_site217] | 6.69
ATATATATTAAAAATAGTACATATAATAAAAATCAT [XGTACX_site4265] | 6.57
TGTATATGTTTAATTAGTACATATAAAGTAACAATA [XGTACX_site1207] | 6.51

Sequence | gcPBM binding intensity (ln)
ATATGAAATATATGTAGTACACATAATTAAAAGTAG [XGTACX_site6490] | 6.74
AACGATATAGGTACTACACACATTATGTCATCCTAT [CACACA_site7205] | 6.42
TACATATTCCTACAAATGTATAAATTATAAATATTA [XGTACX_negctrl_site30] | 6.11
AATTTTTATATAATTTAACACACATTTCATATAAAA [CACACA_site9018] | 6.49
TTAGGATATTTATTTCGTACATATATTTTTAATTGT [XGTACX_site582] | 5.85
TATAAATTATTTATCACACATAAAACAAAAATAAGA [CACACA_site5493] | 6.9
TACTTCATATAATTAGCACACAATAATTTCTCATTT [CACACA_site2872] | 7.53
AGTTATTTTATAGAATATGAATAATTTTACTTTTCA [XGTACX_negctrl_site403] | 5.79
TTCATTCATTTTATTACACACAAAAAAAAAAAAAAA [CACACA_site3680] | 6.39
AATTTCATTTTACTTATCTAATATTTATAATCTTTT [CACACA_negctrl_site636] | 6.32
AAAAAAAAAGGTACTACACACTATTCTCAATAGAAA [CACACA_site6193] | 6.26
TTCGTCTTTTTTCTCACACACCCTTTTTATTAAAAG [CACACA_site7225] | 7.3
ATAATACAAAACACAAGTACATAAATTAAAAAGATG [XGTACX_site7839] | 7.11
AAAGAATACATATATTGTACATATATATATACCGTT [XGTACX_site6250] | 6.39
AGAATTAAAATAAAGGTGCATTTTTTTGTTTCATGT | 8.48
AGTACGTAAATTATAATACACACTATAGGATATTCT [CACACA_site2559] | 6.51
TTTTCTACATCTTGTTGTACGAAAAATAAAAAAAAT [XGTACX_site4620] | 6.61
GGAATATGTATATTTTGTACGTATACATTTTTTGGG [XGTACX_site7681] | 7.17
GTTATTGTAAAAAGATTACACACGTTCTATATACTT [CACACA_site2473] | 6.49
GATATATTTTATATATGTACATACAGTGGTAAATAT [XGTACX_site1324] | 6.59
TTTATACAAAAAAACAAAATCAAACAAAAAAAAAAA [CACACA_negctrl_site252] | 6.13
TTTTAAACAGGACACACACACATATATATATATATA [CACACA_site4664] | 9.36

Sequence | gcPBM binding intensity (ln)
AAAATTATATATTTTAGTACATAAAATATTGACATA [XGTACX_site2581] | 6.3
ATGTAATGTTATGTTATGTTTTTTTTTTTTTTGTGT [CACACA_negctrl_site1264] | 6.24
ATTTCCCCTTTTTATTGTACATTTTTATTTGTTACT [XGTACX_site4845] | 7.49
AAAATATTTATGTATGCATGTTGTAATATTTCTTTA [TGCATGCA_site296] | 6.46
TAAAAAAAAACAGAAACACACATTATTCATATATAT [CACACA_site2049] | 6.51
TATGCTATATATTTAGTGCATATATATAACTTTTAT [GTGCAC_site9902] | 8.96
TATATATGTATCATTACACACATGTATACTTATTTG [CACACA_site4138] | 6.62
TGTATAAATATATATACACACATATTTATATATATA [CACACA_site755] | 7.05
TACATTTGTATAAATAGTACGCGAAAACAAAAAAAA [XGTACX_site6246] | 7.02
ATATATGTGCCCATATATATATATATAAATATATGT [GTGCAC_negctrl_site226] | 6.63
ATATTATAATATTTATGTACATATATATAATATATA [XGTACX_site1633] | 6.35
TATTAGCATGTTATTACACACAATATAAGATATATA [CACACA_site6775] | 6.61
AATATATATTTATAAACACACACCAAAATTTGTGCT [CACACA_site3091] | 6.82
ACATTTTGTGTTTTAGCACACAATTTTTCAGAATAT [CACACA_site2961] | 6.73
ATAGCTAAGATAGCTTGTACATATATTTACATATAT [XGTACX_site3694] | 5.8
TATAAAATAAAAATTATATATTTTAAATGGATACAA [TGCATGCA_negctrl_site284] | 6.46
AAAACAAATTAAAATCGTACAATTATAATGTTAATG [XGTACX_site180] | 6.4
ATTTAAATGAAAAAATGTACAAAAAGATTTAAACTC [XGTACX_site1489] | 6.84
ATGCACATTTATAAAAGTACATGTATGTAATATGTT [XGTACX_site830] | 6.84
ATATGTAGTTTTTACCTAATAAAAAAAAAAAAAAAA [CACACA_negctrl_site672] | 6.18
TAAACATATAAAAAGGGTACACATTAAACATAGTAT [XGTACX_site7096] | 6.38
